In article PMC6739345, “CAND1 regulates lunapark for the proper tubular network of the endoplasmic reticulum” (Scientific Reports, 2019):
These are yes or no findings as the source states them, for the method shown. For part of these data: Binding seen in cells or lysates may run through a third protein. Some binding calls cover weakened binding; strength is not graded here. For part of these data: Sequences can lack the tags named with a protein. Blank lines part the entries; values can stand above or below the molecule they belong to.

Protein sequences, listed by entry. Tags and fused reporters are not part of them. Lines headed by an entry give the natural chain unless they say otherwise; changes in a name come on top. Residues count along the entry.
UniProt Q9UKV5: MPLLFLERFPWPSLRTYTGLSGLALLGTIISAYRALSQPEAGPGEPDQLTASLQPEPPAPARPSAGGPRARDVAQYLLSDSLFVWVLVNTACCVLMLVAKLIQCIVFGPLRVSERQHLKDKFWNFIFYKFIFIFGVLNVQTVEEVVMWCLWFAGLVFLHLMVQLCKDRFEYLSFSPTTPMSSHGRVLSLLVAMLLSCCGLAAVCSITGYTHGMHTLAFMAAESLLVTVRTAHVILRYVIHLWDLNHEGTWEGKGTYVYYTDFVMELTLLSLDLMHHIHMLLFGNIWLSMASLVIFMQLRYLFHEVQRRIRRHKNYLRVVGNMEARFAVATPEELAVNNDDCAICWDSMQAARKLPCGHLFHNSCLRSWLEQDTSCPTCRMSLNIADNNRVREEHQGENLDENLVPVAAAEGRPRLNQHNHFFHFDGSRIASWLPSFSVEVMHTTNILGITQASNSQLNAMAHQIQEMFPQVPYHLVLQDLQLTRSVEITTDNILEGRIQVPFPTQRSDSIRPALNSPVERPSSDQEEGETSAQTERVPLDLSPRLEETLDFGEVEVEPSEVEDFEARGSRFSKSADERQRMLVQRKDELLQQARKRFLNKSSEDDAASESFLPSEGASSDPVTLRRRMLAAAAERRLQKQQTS
UniProt Q9C0E8: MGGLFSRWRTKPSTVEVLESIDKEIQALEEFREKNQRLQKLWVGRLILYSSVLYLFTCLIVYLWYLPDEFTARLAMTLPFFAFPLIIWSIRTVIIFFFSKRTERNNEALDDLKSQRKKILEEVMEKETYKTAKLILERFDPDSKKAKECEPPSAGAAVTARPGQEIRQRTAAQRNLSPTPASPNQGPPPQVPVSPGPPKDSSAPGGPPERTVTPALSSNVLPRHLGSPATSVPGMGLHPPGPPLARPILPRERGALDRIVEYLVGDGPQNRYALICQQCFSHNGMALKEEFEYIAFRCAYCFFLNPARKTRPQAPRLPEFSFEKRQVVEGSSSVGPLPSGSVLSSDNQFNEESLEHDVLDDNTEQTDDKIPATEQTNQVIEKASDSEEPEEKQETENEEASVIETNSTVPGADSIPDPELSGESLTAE
GST-Lnp Ub (N-terminal ubiquitin ligase domain of Lnp): residues 1-45 of Q9C0E8

Legend:
gp78-myc (human) = gp78-myc (human) (UniProt Q9UKV5); test: co-IP; HEK293 cells transfected with Lnp-FLAG, HA-CAND1 and gp78-myc together; NP-40 extracts (buffer F) immunoprecipitated with anti-myc mAb or anti-HA mAb, 4 °C 3 h; immunoblot
HA-tagged CAND1 (human) [1] = target: HA-tagged CAND1 (human) (UniProt Q86VP6); test: as above
HA-tagged CAND1 (human) [2] = target: HA-tagged CAND1 (human) (UniProt Q86VP6); test: co-IP; HEK293 cells transfected with Lnp-FLAG and HA-CAND1; NP-40 extracts (buffer F) immunoprecipitated with anti-HA mAb, 4 °C 3 h; immunoblot
GST-Rtn3c (mouse) = target: T1, GST-Rtn3c (mouse) (UniProt Q9ES97); test: pull-down; GST-Lnp or GST-Rtn3c (1 nmol) immobilised on glutathione Sepharose, incubated with MBP-CAND1 or MBP alone (10 nmol) in buffer G (50 mM Tris-HCl pH 8.0, 150 mM NaCl, 1% Triton X-100) with 10 mM imidazole, 4 °C 2 h; CBB staining; both purified
T1 sequence: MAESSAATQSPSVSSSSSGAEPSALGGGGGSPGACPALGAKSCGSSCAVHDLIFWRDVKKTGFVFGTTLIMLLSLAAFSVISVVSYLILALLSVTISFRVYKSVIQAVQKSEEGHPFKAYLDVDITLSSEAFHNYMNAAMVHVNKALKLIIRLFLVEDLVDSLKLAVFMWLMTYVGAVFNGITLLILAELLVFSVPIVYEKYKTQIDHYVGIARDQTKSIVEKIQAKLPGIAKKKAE

[3] = target: GST-Lnp Ub (N-terminal ubiquitin ligase domain of Lnp) (human) (UniProt Q9C0E8); test: pull-down; GST-Lnp or GST-Lnp Ub (0.6 nmol) immobilised on glutathione Sepharose, incubated with MBP-CAND1 (6 nmol) in buffer A with 1% Triton X-100, 4 °C 2 h; CBB staining; both purified
[4] = target: endogenous CAND1 of HeLa cells (human (endogenous in HeLa)) (UniProt Q86VP6); test: co-IP; endogenous proteins; NP-40 extract of HeLa cells (buffer F) immunoprecipitated with anti-CAND1 mAb or mouse control IgG, 4 °C overnight; immunoblot
MBP-fused CAND1 = target: T2, MBP-fused CAND1 (human, UniProt Q86VP6 1-1230); test: pull-down; reciprocal: MBP-CAND1 (0.6 nmol) immobilised on amylose resin, incubated with GST-Lnp or GST-Rtn3c (3 nmol) in buffer A with 1% Triton X-100, 4 °C 2 h; CBB staining; both purified
T2 construct: Cullin-associated and neddylation-dissociated 1 (CAND1), human; cDNA bought from the Kazusa DNA Research Institute, in pMAL-C2; also called MBP-CAND1; source: E. coli Rosetta-Gami, purified (amylose resin, eluted with maltose)
T2 sequence (looked up): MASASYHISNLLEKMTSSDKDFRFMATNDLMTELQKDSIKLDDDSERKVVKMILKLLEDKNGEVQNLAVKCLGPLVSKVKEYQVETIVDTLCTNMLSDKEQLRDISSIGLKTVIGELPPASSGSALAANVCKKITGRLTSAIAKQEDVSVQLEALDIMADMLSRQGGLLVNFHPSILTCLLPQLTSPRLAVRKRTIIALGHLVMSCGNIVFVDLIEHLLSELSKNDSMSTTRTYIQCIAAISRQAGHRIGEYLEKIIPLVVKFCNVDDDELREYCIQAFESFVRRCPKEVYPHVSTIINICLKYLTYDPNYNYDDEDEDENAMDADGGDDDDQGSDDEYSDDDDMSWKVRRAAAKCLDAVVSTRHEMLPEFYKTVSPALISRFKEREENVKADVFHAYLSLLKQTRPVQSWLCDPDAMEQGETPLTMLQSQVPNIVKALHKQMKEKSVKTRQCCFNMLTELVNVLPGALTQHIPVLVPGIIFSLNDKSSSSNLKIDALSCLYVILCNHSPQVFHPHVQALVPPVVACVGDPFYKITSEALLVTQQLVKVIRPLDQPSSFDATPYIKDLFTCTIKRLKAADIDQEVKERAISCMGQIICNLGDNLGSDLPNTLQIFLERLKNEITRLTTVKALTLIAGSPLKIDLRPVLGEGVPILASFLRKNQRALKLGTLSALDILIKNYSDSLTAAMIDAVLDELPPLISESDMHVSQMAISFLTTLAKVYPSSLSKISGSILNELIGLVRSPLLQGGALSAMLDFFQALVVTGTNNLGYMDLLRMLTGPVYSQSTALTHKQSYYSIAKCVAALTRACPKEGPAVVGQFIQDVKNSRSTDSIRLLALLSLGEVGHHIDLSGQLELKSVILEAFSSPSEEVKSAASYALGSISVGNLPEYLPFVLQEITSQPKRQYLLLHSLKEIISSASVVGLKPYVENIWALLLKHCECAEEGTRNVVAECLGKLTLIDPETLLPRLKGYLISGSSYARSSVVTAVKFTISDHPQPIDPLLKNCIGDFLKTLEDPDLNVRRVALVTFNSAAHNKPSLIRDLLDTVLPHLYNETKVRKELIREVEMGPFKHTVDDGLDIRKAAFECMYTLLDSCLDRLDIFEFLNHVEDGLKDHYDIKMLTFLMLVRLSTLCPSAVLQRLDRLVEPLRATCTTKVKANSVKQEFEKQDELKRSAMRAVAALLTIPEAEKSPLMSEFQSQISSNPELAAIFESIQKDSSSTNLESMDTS

binding (gp78-myc (human)): binds | binding (HA-tagged CAND1 (human) [1]): binds | binding (HA-tagged CAND1 (human) [2]): binds
Molecule: C-terminal FLAG-tagged Lnp (from UniProt Q9C0E8 1-428)

binding (gp78-myc (human)): no binding
Molecule: HA-tagged CAND1 (from UniProt Q86VP6 1-1230)

Molecule: MBP-fused CAND1 (from UniProt Q86VP6 1-1230)
binding (GST-Rtn3c (mouse)): no binding (tested: MBP-CAND1 10 nmol on GST-Rtn3c 1 nmol) | binding [3]: no binding (tested: MBP-CAND1 6 nmol on GST-Lnp Ub 0.6 nmol)

binding [4]: binds
Molecule: endogenous Lnp of HeLa cells (from UniProt Q9C0E8 1-428)

binding (HA-tagged CAND1 (human) [1]): no binding
Molecule: gp78-myc (from UniProt Q9UKV5 1-643)

B1: GST-Rtn3c (protein, UniProt Q9ES97-3 1-237)
chain: MAESSAATQSPSVSSSSSGAEPSALGGGGGSPGACPALGAKSCGSSCAVHDLIFWRDVKKTGFVFGTTLIMLLSLAAFSVISVVSYLILALLSVTISFRVYKSVIQAVQKSEEGHPFKAYLDVDITLSSEAFHNYMNAAMVHVNKALKLIIRLFLVEDLVDSLKLAVFMWLMTYVGAVFNGITLLILAELLVFSVPIVYEKYKTQIDHYVGIARDQTKSIVEKIQAKLPGIAKKKAE
binding (MBP-fused CAND1): no binding (tested: GST-Rtn3c 3 nmol on MBP-CAND1 0.6 nmol)
